Reference: the RNAGym collection of RNA variant scans (doi:10.1073/pnas.2313332121)
This sample is rich in variants without activity.

B1: TPR 5TU (parent)
chain: GGAUCUUCUCGAUCUAACAAAAAAGACAAAUCUGCCACAAAGCUUGAGAGCAUCUUCGGAUGCAGAGGCGGCAGCCUUCGGUGGCGCGAUAGCGCCAACGUUCUCAACUAUGACACGCAAAACGCGUGCUCCGUUGAAUGGAGUUUAUCAUG

Variants of: B1
Assay: polymerase ribozyme fitness, log enrichment relative to wild type (log ratio); higher = more active; in vitro selection for triplet polymerase activity
Outline: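 One round of in vitro selection, in triplicate, was applied to PCR-built, transcribed mutant libraries of each subunit of a heterodimeric triplet polymerase ribozyme. The steps were annealing with a biotinylated primer, partner subunit and triplets, incubation frozen at −7 °C, gel excision of extended constructs, streptavidin-bead capture and RT-PCR. Fitness is the logarithm, base 2, of genotype enrichment over wild-type enrichment from inverse-variance-weighted replicate averages of Illumina-sequenced inputs and outputs, keeping genotypes with ≥10 input reads and ≥1 read per output.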

Variant	polymerase ribozyme fitness (log ratio)
GGAUCUUCUCGAUCUAACAAAAAAGACAAAUCUGCCACAAAGCUUGAGAGCAUCUUCGGAUGCAGAGGCGGCAGCCUUCGGUGGCGCGAUAGCACCAACGUUCUUAACUAUGACAUGCAAAACGGGUGCUCCGUUGAAUGGAGUUUAUCAUG [G94A C105U C116U C125G]	-0.0334
GGAUCUUCUCGAUCUAACAAAAAAGACAAAUCUGCCACAAAGCUUGAGAGCAUCUUCGGAUGCAGAGGCGGCAGCCUUCGGUGGCGCGAUAGCACCAACAUUCUCAACUAUGACACGCAAAACGCGUGCUCCGUUGAAUGGAUUUUAUCAUG [G94A G100A G143U]	≤ -4.2
GGAUCUUCUCGAUCUAACAAAAAAGACAAAUCUGCCACAAAGCUUGAGAGCAUCUUCGGAUGCAGAGGCGGCAGCCUUCGGUGGCGCGAUAGCACCAACGUUCUCAACUAUGACACUCAAAACGCGUGCUCCGUUGAAUGGAGUUUAUCAUG [G94A G117U]	-0.469
GGAUCUUCUCGAUCUAACAAAAAAGACAAAUCUGCCACAAAGCUUGAGAGCAUCUUCGGAUGCAGAGGCGGCAGCCUUCGGUGGCGCGAUAGCACCAACGUUCUCAACUAUGACACGCAAAACGCGUGCUCCUUUGAAUGGAGUUUAUCAUG [G94A G133U]	-3.19
GGAUCUUCUCGAUCUAACAAAAAAGACAAAUCUGCCACAAAGCUUGAGAGCAUCUUCGGAUGCAGAGGCGGCAGCCUUCGGUGGCGCGAUAGCACCAACGUUCUCAACUAUGACACGCAAAACGCGUGCUCCGUUGAAUGAAGUUUAUCAUG [G94A G141A]	0.172
GGAUCUUCUCGAUCUAACAAAAAAGACAAAUCUGCCACAAAGCUUGAGAGCAUCUUCGGAUGCAGAGGCGGCAGCCUUCGGUGGCGCGAUAGCACCAACGUUCUCAACUAUGACACGCAAAACGCGUGCUCCGUUGAAUGCAGUUUAUCAUG [G94A G141C]	-2.23
GGAUCUUCUCGAUCUAACAAAAAAGACAAAUCUGCCACAAAGCUUGAGAGCAUCUUCGGAUGCAGAGGCGGCAGCCUUCGGUGGCGCGAUAGCACCAACGUUCUCAACUAUGACACGCAAAACGCGUGCUCCGUUGAAUGGAGUUUAUCAUC [G94A G152C]	-3.08
GGAUCUUCUCGAUCUAACAAAAAAGACAAAUCUGCCACAAAGCUUGAGAGCAUCUUCGGAUGCAGAGGCGGCAGCCUUCGGUGGCGCGAUAGCACCAACGUUCUCAACUAUGACACGCAAAACGCGUGCUCCGUUGAACGGAGUUUAUCAUG [G94A U139C]	-3.82
GGAUCUUCUCGAUCUAACAAAAAAGACAAAUCUGCCACAAAGCUUGAGAGCAUCUUCGGAUGCAGAGGCGGCAGCCUUCGGUGGCGCGAUAGCCCCUACGUUCUCAACUAUGACACGCAAAACGCGUGCUCCGUUGAAUGGAGUUUAUCAUG [G94C A97U]	-2.45
GGAUCUUCUCGAUCUAACAAAAAAGACAAAUCUGCCACAAAGCUUGAGAGCAUCUUCGGAUGCAGAGGCGGCAGCCUUCGGUGGCGCGAUAGCCCCAACGUUCUCAGCUAUGACACGCAAAACGCGUGCUCCGUUGAAUGGAGUUUAUCAUG [G94C A107G]	-3.89
GGAUCUUCUCGAUCUAACAAAAAAGACAAAUCUGCCACAAAGCUUGAGAGCAUCUUCGGAUGCAGAGGCGGCAGCCUUCGGUGGCGCGAUAGCCCCAACGUUCUCAUCUAUGACACGCAAAACGCGUGCUCCGUUGAAUGGAGUUUAUCAUG [G94C A107U]	≤ -4.2
GGAUCUUCUCGAUCUAACAAAAAAGACAAAUCUGCCACAAAGCUUGAGAGCAUCUUCGGAUGCAGAGGCGGCAGCCUUCGGUGGCGCGAUAGCCCCAACGUUCUCAACUAUGGCACGCAAAACGCGUGCUCCGUUGAAUGGAGUUUAUCAUG [G94C A113G]	-2.8
GGAUCUUCUCGAUCUAACAAAAAAGACAAAUCUGCCACAAAGCUUGAGAGCAUCUUCGGAUGCAGAGGCGGCAGCCUUCGGUGGCGCGAUAGCCCCAACGUUCUCAACUAUGACACGCAAACCGCGUGCUCCGUUGUAUGGAGUUUAUCAUG [G94C A122C A137U]	-4.05
GGAUCUUCUCGAUCUAACAAAAAAGACAAAUCUGCCACAAAGCUUGAGAGCAUCUUCGGAUGCAGAGGCGGCAGCCUUCGGUGGCGCGAUAGCCCCAACGUUCUCAACUAUGACACGCAAAACGCGUGCUCCGUUGAAUGGCGUUUAUCAUG [G94C A142C]	-1.37
GGAUCUUCUCGAUCUAACAAAAAAGACAAAUCUGCCACAAAGCUUGAGAGCAUCUUCGGAUGCAGAGGCGGCAGCCUUCGGUGGCGCGAUAGCCCCAACGUUCUCAAUUAUGACACGCAAAACGCGUGCUCCGUUGAAUGGAGUUUAUCAUG [G94C C108U]	≤ -4.2
GGAUCUUCUCGAUCUAACAAAAAAGACAAAUCUGCCACAAAGCUUGAGAGCAUCUUCGGAUGCAGAGGCGGCAGCCUUCGGUGGCGCGAUAGCUCCAACGUUCUCAACUAUGACACGCAAAACGCGUGCUCCGUUGAAUGGCGUUUAUCCUG [G94U A142C A150C]	≤ -4.2
GGAUCUUCUCGAUCUAACAAAAAAGACAAAUCUGCCACAAAGCUUGAGAGCAUCUUCGGAUGCAGAGGCGGCAGCCUUCGGUGGCGCGAUAGCUCCAACGUUCUCAACUAUGACACGCAAAACGCGUGCUCCGUUGAAUGGUGUUUAUCAUG [G94U A142U]	-1.73
GGAUCUUCUCGAUCUAACAAAAAAGACAAAUCUGCCACAAAGCUUGAGAGCAUCUUCGGAUGCAGAGGCGGCAGCCUUCGGUGGCGCGAUAGCUCUAACGUUCUCAACUAUGACACGCAAAACGCGUGCUCCGUUGAAUGGAGUUUAUCAUG [G94U C96U]	-0.719
GGAUCUUCUCGAUCUAACAAAAAAGACAAAUCUGCCACAAAGCUUGAGAGCAUCUUCGGAUGCAGAGGCGGCAGCCUUCGGUGGCGCGAUAGCUCCAACGUUCUCAAAUAUGACACGCAAAACGCGUGCUCCGUUGAAUGGAGUUUAUCAUG [G94U C108A]	≤ -4.2
